Measured values as given in US20200179510A1, “LOW DENSITY LIPOPROTEIN RECEPTOR RELATED PROTEIN 5 INHIBITION SUPPRESSES TUMOR FORMATION” (YALE UNIVERSITY, priority 2017, published 2020).

Assays:
MC38 tumors = experiment: Immunostaining of MC38 tumor sections (CD31, Ki67, activated caspase 3, granzyme B); assay type: in vivo, mouse; conditions: 5F8 10 mg/kg i.p. every three days from Day 14, vs IgG
Experimental: Tissues were fixed with 4% PFA (Santa-Cruz sc-281692) for 4-6 hours on a shaker at 4° C. They were then washed with PBS three times and perfused in 20% sucrose solution in PBS overnight at 4° C. They were subsequently mounted in the OCT embedding compound and frozen first at −20 and then at −80° C. Tissue sections were prepared at 8 μm thickness using a cryostat and mounted onto gelatin-coated histological slides, which were stored at −80° C. For immunostaining, slides were thawed to room temperature and fixed in pre-cold acetone for 10 minutes, followed by rehydration in PBS for 10 minutes. The slides were incubated in a blocking buffer (1% horse serum and 0.02% Tween 20 in PBS) for 1-2 hours at room temperature, followed by incubation with primary antibodies, which were diluted in an incubation buffer (1% horse serum, 0.02% Tween 20 in PBS), overnight at 4° C. The slides were then washed three times with PBS and incubated with a secondary antibody [donkey anti-rabbit IgG H&L (DyLight® 550) preadsorbed (abcam ab96920)] in the incubation buffer for 1 hour at room temperature. After repeated washes the slides were mounted with an antifade mounting media containing DAPI (Thermo Fisher P36931) and visualized using a confocal microscope.
To test the effects of 5F8 antibody on tumor cell microenvironment such as changes in angiogenesis, proliferation or apoptosis, MC38 tumors were examined using an immunohistological approach. In this study, C57BL mice (10 week old female mice, n=5 per group) were grafted with MC38 cells via the subcutaneous (s.c.) route. Fourteen days later, the mice were treated every three days via the intraperitoneal (i.p.) route with mouse IgG or 5F8 (10 mg/kg). […] To test if DKK2 expression may alter the tumor microenvironment to induce apoptosis via proper anti-tumor immune response, the levels and anti-tumor activity of cytotoxic effector immune cells were measured. Immune cytotoxic cells, such as natural killer cells (NK) and CD8+T lymphocytes, are capable of directly killing tumor cells by secreting preformed granules containing perforin and granzymes. Uptake of granzyme B (gzmb), which is a serine protease, induces target cell apoptosis via a pathway involving proteolytic activation of Caspases, cleavage of Bid, and fragmentation of DNA. (Thornberry et al., J Biol Chem, 1997. 272(29): p. 17907-11; Heusel et al., Cell, 1994. 76(6): p. 977-87).

[1] = system: inguinal lymph node leukocytes; experiment: Flow cytometry of tumor draining lymph nodes, MC38 model; assay type: in vivo, mouse
Experimental: (§1) Cells in single cell suspension were fixed with 2% PFA (Santa-Cruz sc-281692). After washing with a Flow Cytometry Staining Buffer (eBioscience 00-4222-26), cells were stained with antibodies for cell surface markers for 1 hour on ice in the dark. For staining of intracellular proteins, the cells were washed and resuspended in the Permeabilization Buffer (BD 554723) and stained by antibodies in the Permeabilization Buffer for 1 hour on ice in the dark. The cells were then pelleted and resuspended in the Flow Cytometry Staining Buffer for flow cytometry analysis.

primary mouse NK cells = experiment: IL-15-cultured primary mouse NK cells (flow cytometry, Western); assay type: cell-based; conditions: 5F8, NK cells alone
Experimental: as §1
Mouse primary NK and CD8+ T cells were isolated from the spleens by using the NK cell and CD8+ T cell isolation kits according to the manufacturer's instructions (Miltenyi Biotec #130-090-864 and #130-104-075), respectively. Primary NK cells were cultured in RPMI-1640 (Gibco, 11875-093) supplemented with 10% FBS, penicillin (100 U/ml), streptomycin (100 μg/ml), 2-mercaptoethanol (500 μM) and HEPES (10 mM) at 37° C. supplemented with 5% CO2 in the presence of recombinant murine IL-15 (50 ng/ml) for 24 hours before treatment with DKK2, CHIR99021, or WNT3A. CD8+ T cells were cultured in the same culture medium and condition as NK cells, but supplemented with IL-15 (200 ng/ml) and IL-15 Rα (1 μg/ml recombinant Mouse IL-15 receptor alpha Fc chimera Protein from R&D) for 96 hours before DKK2 treatment. […]

[2] = system: phospho-STAT5 nuclear localization; experiment: Immunocytostaining of phospho-STAT5 localization in NK cells; assay type: cell-based, mouse; conditions: NK cells from MC38 tumors treated 6 days (two 10 mg/kg injections), vs IgG
Experimental: They were then placed on poly-lysine coated coverslips and incubated for 30 min at room temperature. Cells were fixed with 4% PFA for 10 min at room temperature and permeabilized with ice-cold methanol for 10 min at −20° C. After rinsed with PBS for 3 times, cells were blocked with a blocking buffer (5% normal donkey serum and 0.5% triton in PBS) for 1 hr at room temperature. Primary antibodies were then diluted in PBS with 0.5% BSA and applied to cells with overnight incubation at 4° C. Cells were rinsed with PBS for 3 times and incubated with diluted fluorochrome-conjugated secondary antibodies (in PBS with 1% BSA) for 1 hr at room temperature. Finally, cells were rinsed with PBS for 3 times and mounted with Prolong Gold Antifade solution (Thermo Fisher) for confocal microscopy.

[3] = system: tumor infiltrated leukocytes (CD8+ and NK1.1+ cells); experiment: Flow cytometry of tumor infiltrated leukocytes, MC38 tumors; assay type: in vivo, mouse; conditions: one injection 10 mg/kg i.p., 24 hours

B1: 5F8: Mouse monoclonal antibody to DKK2, raised against a synthetic peptide of human DKK2 (SEQ ID NO: 21); chains SEQ ID NOs: 22, 23 (antibody, V domains shown)
VH: GAELVRPGASVKLSCKASGYSFTNYWMNWVKQRPGQGLEWIGMIHPSDSETRLNQKFKDKATLTVDKSSSTAYMQLSSPTSEDSAVYYCAREGRLGLRSYAMDYWGQGTSVTVSS
VL: PSSLAMSVGQKVTMSCKSSQSLLNSSNQKNYLAWYQQKPGQSPKLLVYFASTRESGVPDRFVGSGSGTDFTLTITSVQAEDLADYFCQQHYITPLTFGAGTKLE
With B1 the “apoptosis (activated caspase 3) in tumors” value (MC38 tumors) was “a significant enhancement of apoptosis”, the “number of granzyme B-positive cells in tumors” value (MC38 tumors) was “significant increases in the number of granzyme B-positive cells” and the “tumor angiogenesis (CD31)” value (MC38 tumors) was “no significant difference in angiogenesis”. The “tumor cell proliferation (Ki67)” value (MC38 tumors) was “no significant difference in tumor cell proliferation”, the “granzyme B in CD8+ cells of tumor draining lymph nodes” value ([1]; vs IgG3) was “a trend towards an increase in granzyme B” and the “granzyme B in NK1.1+ cells of tumor draining lymph nodes” value ([1]; vs IgG3) was “a significant increase in granzyme B”. For the same molecule, the “populations of CD4+, CD8+, NK1.1+ cells in tumor draining lymph nodes” value ([1]; vs isotype) was “no significant differences”, the “granzyme B expression in NK cells cultured alone” value (primary mouse NK cells) was “little effects on granzyme B expression” and the “cytosolic localization of phospho-STAT5 in tumor-infiltrated NK cells” value [2] was “reduced cytosolic localization of phospho-STAT5”. The “tumor sizes after acute treatment” value [3] was “no obvious differences in tumor sizes”.
